Experimental data taken from paper PMC10516938, “Conformational dynamics of cohesin/Scc2 loading complex are regulated by Smc3 acetylation and ATP binding” (Nature Communications, 2023).
No constants are given. Whether binding was seen depends on the method and setting. In cells and extracts the contact can be indirect. Some entries that bind do so weakly or less than the wild type.

Biological target: T1, Smc3 Q67C (S. cerevisiae) (UniProt P47037)
T1 sequence: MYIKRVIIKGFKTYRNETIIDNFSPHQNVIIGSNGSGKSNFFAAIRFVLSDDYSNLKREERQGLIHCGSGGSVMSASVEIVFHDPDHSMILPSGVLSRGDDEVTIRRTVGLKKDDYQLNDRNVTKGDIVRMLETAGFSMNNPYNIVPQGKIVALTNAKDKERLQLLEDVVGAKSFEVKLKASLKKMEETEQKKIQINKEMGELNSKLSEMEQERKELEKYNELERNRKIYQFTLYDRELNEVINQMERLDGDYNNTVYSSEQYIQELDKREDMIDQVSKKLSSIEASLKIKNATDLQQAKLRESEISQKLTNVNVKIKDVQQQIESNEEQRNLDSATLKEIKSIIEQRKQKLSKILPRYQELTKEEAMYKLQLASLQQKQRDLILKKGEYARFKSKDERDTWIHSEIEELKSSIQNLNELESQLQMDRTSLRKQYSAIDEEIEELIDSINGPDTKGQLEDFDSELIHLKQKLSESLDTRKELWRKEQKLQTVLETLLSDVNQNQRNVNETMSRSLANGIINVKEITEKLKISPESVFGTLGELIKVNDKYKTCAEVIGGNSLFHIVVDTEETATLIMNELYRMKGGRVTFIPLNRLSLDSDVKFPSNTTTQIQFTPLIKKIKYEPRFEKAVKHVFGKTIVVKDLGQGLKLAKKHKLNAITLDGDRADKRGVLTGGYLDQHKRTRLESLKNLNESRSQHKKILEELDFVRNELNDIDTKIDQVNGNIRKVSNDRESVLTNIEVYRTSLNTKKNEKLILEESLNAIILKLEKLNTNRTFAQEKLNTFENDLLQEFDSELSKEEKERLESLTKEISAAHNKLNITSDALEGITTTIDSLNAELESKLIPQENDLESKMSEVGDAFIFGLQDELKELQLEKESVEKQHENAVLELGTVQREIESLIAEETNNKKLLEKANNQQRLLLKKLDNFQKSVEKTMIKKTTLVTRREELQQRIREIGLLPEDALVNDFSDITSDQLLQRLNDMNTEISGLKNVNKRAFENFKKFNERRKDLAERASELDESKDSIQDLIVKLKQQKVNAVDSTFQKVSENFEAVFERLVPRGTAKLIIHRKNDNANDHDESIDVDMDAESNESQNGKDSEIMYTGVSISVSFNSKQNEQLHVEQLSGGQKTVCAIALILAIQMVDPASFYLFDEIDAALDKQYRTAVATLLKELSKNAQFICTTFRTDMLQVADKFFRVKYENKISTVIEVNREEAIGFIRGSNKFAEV
Assay: cross-linking; in vivo BMOE cross-link of cysteine pairs in exponentially grown yeast cells (on ice, 6 min); Scc1-PK immunoprecipitated, western blot

B1: Scc2 S1171C (protein, UniProt Q04002 1-1493)
chain: MSYPGKDKNIPGRIIEALEDLPLSYLVPKDGLAALVNAPMRVSLPFDKTIFTSADDGRDVNINVLGTANSTTSSIKNEAEKERLVFKRPSNFTSSANSVDYVPTNFLEGLSPLAQSVLSTHKGLNDSINIEKKSEIVSRPEAKHKLESVTSNAGNLSFNDNSSNKKTKTSTGVTMTQANLAEQYLNDLKNILDIVGFDQNSAEIGNIEYWLQLPNKKFVLTTNCLTKLQMTIKNITDNPQLSNSIEITWLLRLLDVMVCNIKFSKSSLKMGLDDSMLRYIALLSTIVLFNIFLLGKNDSNLHRESYIMEPVNFLSDLIESLKILTIEYGSLKIEFDTFQEALELLPKYIRNGPFLDDNVTAKLVYIFSDLLMNNDIEATTNIQFQSFWDNVKRISSDILVSLFGSFDQQRGFIIEELLSHIEKLPTKRIQKKLRKVGNQNIYITDFTFTLMSMLENINCYSFCNQMKDIAPENIDLLKNEYKKQEEFLFNIVEHINDTILERFFKNPSALRYVIDNFVQDLLLLISSPQWPVTEKILSSLLKRLLSVYSPSMQVSANIETICLQLIGNIGSTIFDIKCSTRDHEDNNLIKMINYPETLPHFFKSFEECIAYNETIKCRRSATRFLWNLRLGTILILEEYTKDAKEQIITVDNELKKILEQIKDGGLGPELENREADFSTIKLDYFSILHAFELLNLYDPYLKLILSLLAKDKIKLRSTAIKCLSMLASKDKVILSNPMVKETIHRRLNDSSASVKDAILDLVSINSSYFEFYQQINNNYNDDSIMVRKHVLRINEKMYDETNDIVTKVYVIARILMKIEDEEDNIIDMARLILLNRWILKVHEVLDQPEKLKEISSSVLLVMSRVAIMNEKCSQLFDLFLNFYLLNKEAHSKEAYDKITHVLTILTDFLVQKIVELNSDDTNEKNSIVDKQNFLNLLAKFADSTVSFLTKDHITALYPYMVSDEKSDFHYYILQVFRCTFEKLANFKQKFLYDLETTLLSRLPKMNVREIDEAMPLIWSVATHRHDTARVAKACSSCLSHLHPYINKANNEEAAIVVDGKLQRLIYLSTGFARFCFPKPSNDKIAFLQEGETLYEHITKCLLVLSKDKITHVIRRVAVKNLTKLCGNHPKLFNSRHVLHLLDKEFQSDQLDIKLVILESLYDLFLLEERKCVRNTGVNSTLSSNSILKKKLLKTNRVEFANDGVCSALATRFLDNILQLCLLRDLKNSLVAIRLLKLILKFGYTNPSHSIPTVIALFASTSQYIRHVAYELLEDLFEKYETLVFSSLSRGVTKAIHYSIHTDEKYYYKHDHFLSLLEKLCGTGKKNGPKFFKVLKRIMQSYLDDITDLTSTNSSVQKSIFVLCTNISNITFVSQYDLVSLLKTIDLTTDRLKEVIMDEIGDNVSSLSVSEEKLSGIILIQLSLQDLGTYLLHLYGLRDDVLLLDIVEESELKNKQLPAKKPDISKFSAQLENIEQYSSNGKLLTYFRKHVKDT
- binding: binds
